Laboratory results from PubChem BioAssay AID686978 (National Center for Advancing Translational Sciences (NCATS), 2013).
“And” between values parts separate entries of the source, which are not always exact repeats. Identical values can stand only once. Among all 420,000 compounds or so, about 64,000 (15%) were called active. This list was built around the results that the source calls inconclusive (neither active nor inactive); the mix of calls is not that of the screen. Calls follow the shape of the dose curve; as a rule, active = well fitted inhibition curve with a large enough effect; inconclusive = small, poorly fitted or top-dose-only effect; inactive = flat fitted curve, though single readings scatter. A potency beside an inconclusive call is a rough fit, not a confirmed value.

Test: qHTS for Inhibitors of human tyrosyl-DNA phosphodiesterase 1 (TDP1): qHTS in cells in absence of CPT; also: nearly all actives have a fitted effect of over 55% in size
Conditions: DT40 Tdp1-/- hTDP1 cells, no CPT, ATP luminescence, 48 h; activity change, negative = growth inhibition: at 46.2 µM (top of the series) unless noted
How it was run: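 Seeded 400 DT40-hTDP1 cells/well (vehicle DMSO, no 20 nM CPT); pinned compounds; ≥48 hr at 37 °C; CellTiter-Glo luminescence as viability measure.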
% is scaled to controls: 0 for no effect and ±100 for the full control effect; potency is read from the fitted curve at half-maximal effect; tags tell the direction and shape of the fitted curve.

Row | Compound | activity change, negative = growth inhibition | Potency
1 | C/C(=N\Nc1ccccc1)c1c(O)[nH]c(=O)[nH]c1=O | inactive: 2.14% | –
2 | COc1ccc(NC(=O)c2cccn(Cc3ccc(Cl)cc3)c2=O)c(OC)c1 | inactive: -26.7% | –
3 | COC(=O)C1=C(c2ccc(F)cc2F)C[C@@H]2CC[C@H]1N2C(=O)NC1Cc2ccccc2C1 | – | inconclusive: 16.4 µM [inhibitor, single point]
4 | Cc1ccc(CN2CCSc3ccc(C(=O)N4CCC5(CC4)OCCO5)cc32)cc1 | – | inconclusive: 20.6 µM [inhibitor, single point]
5 | Cc1nnc(NCc2ccccc2)c2c1nnn2Cc1ccc(F)cc1 | – | inconclusive: 25.9 µM [inhibitor, single point]
6 | CCc1nn(CC(=O)N2CCN(Cc3ccc4c(c3)OCO4)CC2)c(=O)c2cc3occc3n12 | – | inconclusive: 29.1 µM [inhibitor, single point]
7 | CC(=O)OC1C2CCCC1C(N1CCCC1)CC2 (centres undefined) | – | inactive
8 | Cc1nc2ccccn2c1P(=S)(N1CCCCC1)N1CCCCC1 | – | active: 18.4 µM
9 | COc1ccc2nc3c(C)n(C)ccc-3c2c1 | – | inconclusive: 29.1 µM [inhibitor, single point]
10 | COC(=O)C1=C(c2ccc(F)cc2OCc2ccccc2)C[C@@H]2CC[C@H]1N2C(=O)NCCCc1ccccc1 | – | inconclusive: 20.6 µM [inhibitor, single point]
11 | COc1ccccc1-n1c(-c2ccccc2Br)nc2ccccc2c1=O | – | active: 18.4 µM
12 | CCN1CCN(C(=O)COc2ccc(S(=O)(=O)NC(C)C)cc2)CC1 | inactive: -3.8% | –
13 | N[C@@H](CCP(=O)(O)O)C(=O)O | inactive: 0.914% | –
14 | CCOc1ccc2[nH]c(=O)c(CN(CCO)C3(c4nnnn4C4CCCCC4)CCCCC3)cc2c1 | – | inconclusive: 29.1 µM [inhibitor, single point]
15 | COC(=O)C1=C(c2ccc(-c3ccccc3)c(F)c2)C[C@@H]2CC[C@H]1N2C(=O)NC(C)C | – | active: 18.4 µM
16 | O=c1c2ccccc2nc(-c2ccccc2)n1-c1ccc(O)cc1 | – | inconclusive: 23.1 µM [inhibitor, partial curve, poor fit]
17 | CCCCCCN1CCN(c2ccc(Cl)cc2)CC1 | – | inconclusive: 16.4 µM [inhibitor, partial curve]
18 | COC(=O)C(O)(c1ccc(N(C)C(=O)c2ccc(Cl)c(Cl)c2)cc1)C(F)(F)F (centres undefined) | – | inconclusive: 13 µM [inhibitor, partial curve]
19 | Cc1ncc(CO)c2c1Oc1nc(-c3ccccc3Cl)nc(SCc3ccccc3F)c1C2 | – | active: 14.6 µM
20 | CN1Cc2cnnn2-c2ccccc2C1c1ccccc1 (centres undefined) | – | inconclusive: 16.4 µM [inhibitor, single point]
21 | C[C@]12CC[C@H]3[C@@H](CCC4=CC(=O)CC[C@@]43C)[C@@H]1CC[C@@H]2OC(=O)CCc1ccccc1 | – | inconclusive: 10.9 µM [inhibitor, partial curve]
22 | CC(C)(C)OC(=O)N(CCc1ccccc1)Cc1ccc(OCc2cccc(NC(=O)c3ccccc3)c2)cc1 | – | active: 20.6 µM
23 | O=C(CNC(=O)c1cccs1)NCC(=O)OCC(=O)c1ccc([N+](=O)[O-])cc1 | – | inconclusive: 20.6 µM [inhibitor, single point]
24 | O=C(NCc1ccc2c(c1)CCN2C(=O)c1ccccc1)Nc1cccc(C(F)(F)F)c1 | – | inconclusive: 16.4 µM [inhibitor, partial curve, poor fit]
25 | O=C1NCN(c2ccccc2)C12CCN(C(c1cc3ccccc3o1)c1nnnn1C1CCCC1)CC2 (centres undefined) | – | inconclusive: 20.6 µM [inhibitor, single point]

Row | Compound | activity change, negative = growth inhibition | Potency
26 | Cc1ccc2c(c1)C1CN(C)CCC1N2C(=O)Nc1ccc(Cl)cc1 (centres undefined) | – | active: 25.9 µM
27 | CN(C(=O)Oc1ccc(C(=O)c2ccc(Cl)cc2)cc1)c1ccccc1 | – | active: 16.4 µM
28 | COc1ccc2c(c1)NP(=S)(c1ccccc1)N2C (centres undefined) | inactive: -17% | –
29 | COc1cccc(-n2c(/C=C/c3cccc(C)c3)nc3ccccc3c2=O)c1 | – | active: 23.1 µM
30 | O=C(Cc1ccccc1)N1CCN(Cc2ccc(F)cc2)CC1 | inactive: -11.1% | –
31 | CN(CCc1ccccc1)Cc1c[nH]c2ccccc12 | – | active: 1.46 µM
32 | CCc1ccc(CN2CCN(C(=O)Cc3ccccc3)CC2)cc1 | – | inconclusive: 16.4 µM [inhibitor, single point]
33 | C=CCc1ccc(OC)cc1 | inconclusive: -7.39% [inhibitor] | inconclusive: 25.9 µM [inhibitor, single point]
34 | O=C1NC(=O)C(=Cc2ccc(N3CCOCC3)cc2)C(=O)N1 | inactive: -20.9% | –
35 | CN1CCCCC1Cc1ccccc1 (centres undefined) | inactive: -19.8% | –
36 | O=c1c2ccccc2nc(/C=C/c2ccc3c(c2)OCO3)n1-c1ccccc1 | – | active: 23.1 µM
37 | CN(c1ccc(O)cc1)c1ccc([N+](=O)[O-])c2nonc12 | – | inconclusive: 29.1 µM [inhibitor, single point]
38 | COc1ccc(-n2nnnc2C(C2CC2)N2CCC(n3c(=O)[nH]c4ccccc43)CC2)cc1 (centres undefined) | – | inconclusive: 18.4 µM [inhibitor, single point]
39 | Cc1nc2c(c(C)nn2-c2ccccc2)c(C)c1CCC(=O)N1CCC2(CC1)OCCO2 | – | inconclusive: 18.4 µM [inhibitor, single point]
40 | COc1cc(NCCCn2cnc(C(=O)Nc3ccc(C)c(C)c3)n2)cc(OC)c1OC | – | inconclusive: 25.9 µM [inhibitor, single point]
41 | N#CC1=C(N)Oc2cc(O)ccc2C1c1ccc2c(c1)OCO2 (centres undefined) | inactive: -1.13% | –
42 | COC(=O)C1=C(c2cccc(OCc3ccccc3)c2)C[C@@H]2CC[C@H]1N2C(=O)NCc1ccc(Br)cc1 | – | inconclusive: 29.1 µM [inhibitor, single point]
43 | O=P1(NC2CCCC2)COc2ccccc2OC1 | inactive: 6.52% | –
44 | COC1CC(OC2CC[C@@]3(C=O)C4CC[C@]5(C)C(C6=CC(=O)OC6)CC[C@@]5(O)C4CC[C@]3(O)C2)OC(C)C1O (some centres undefined) | – | active: 0.92 µM
45 | COc1ccc(/C=C/C(=O)NC(=S)N2C[C@H]3C[C@H](C2)c2cccc(=O)n2C3)cc1 | inactive: 11.4% | –
46 | CC(=O)O[C@@]12CO[C@@H]1C[C@@H](O)[C@@]1(C)C(=O)[C@H](O)C3=C(C)[C@@H](OC(=O)[C@H](O)[C@@H](NC(=O)c4ccccc4)c4ccccc4)C[C@@](O)([C@@H](OC(=O)c4ccccc4)C12)C3(C)C (some centres undefined) | – | active: 0.0651 µM
47 | O=C(CCc1nnc2ccc(NCc3ccccc3Cl)nn12)N1CCC2(CC1)OCCO2 | inactive: -2.83% | –
48 | O=C(CNC(=O)c1ccccc1Cl)Nc1ccc(Br)cc1C(=O)c1ccccc1 | – | active: 18.4 µM
49 | COC(=O)c1c(-c2ccc(Cl)cc2)noc1N1CCN(c2ccc(C(C)=O)cc2)CC1 | – | active: 20.6 µM
50 | COc1ccc(-n2c(O)c(/C=C/C=Nc3ccccc3)c(=O)[nH]c2=O)cc1 | inactive: 1.64% | –

Row | Compound | activity change, negative = growth inhibition | Potency
51 | Nc1nonc1C(=O)N/N=C/c1ccc([N+](=O)[O-])o1 | – | active: 9.2 µM
52 | CC(C)CCOP(=O)(c1ccc(N(C)C)cc1)C(O)c1ccc(Cl)cc1Cl (centres undefined) | – | active: 20.6 µM
53 | O=C(c1ccc2c(c1)ncn2C1CCCCCC1)N1CCC2(CC1)OCCO2 | – | inconclusive: 20.6 µM [inhibitor, single point]
54 | CCOC(=O)c1cc2cc(OC)ccc2n1C1CCN(Cc2ccccc2)CC1 | – | inconclusive: 16.4 µM [inhibitor, single point]
55 | CC(=O)c1ccc2c(c1)C1C(Cl)C(Sc3ccccc3[N+](=O)[O-])CC1C(c1ccccc1)N2 (centres undefined) | – | active: 14.6 µM
56 | Cc1c(O)ccc(C(=O)CN2CC(C)OC(C)C2)c1O (centres undefined) | inactive: -1.54% | –
57 | COP(=O)(OC)C(NC(=O)c1ccc(C)cc1)C(Cl)(Cl)Cl (centres undefined) | inactive: 4.88% | –
58 | COc1cc(CN2CCN(c3cc(C)ccc3C)CC2)ccc1O | – | active: 7.31 µM
59 | COc1ccc(CCNCc2ccc(SC)cc2)cc1 | – | inconclusive: 1.16 µM [inhibitor, full curve]
60 | Brc1ccc(-[n+]2c(-c3ccccc3)cc(-c3ccccc3)cc2-c2ccccc2)cc1 | – | active: 2.59 µM
61 | [O-]c1ccccc1-[n+]1c(-c2ccccc2)cc(-c2ccccc2)cc1-c1ccccc1 | – | active: 2.06 µM
62 | CC(=NCCCN1CCOCC1)c1c(O)n(Cc2ccccc2)c(=O)[nH]c1=O | inactive: -9.44% | –
63 | Cc1oc(-c2cccc(Cl)c2)nc1CN1CCC(C(=O)NC(C)c2ccccc2)CC1 (centres undefined) | – | active: 4.61 µM
64 | COc1ccc(OC)c([C@@H](O)[C@H](C)N)c1 | inactive: -15% | –
65 | CCOC(=O)[C@]12Cc3ccccc3[C@H]1N(Cc1ccccc1)C(=O)c1ccccc12 | – | inconclusive: 31.6 µM [inhibitor, single point] and inconclusive: 29.1 µM [inhibitor, single point]
66 | CC(C)CC1(CCc2ccccc2)C(=O)NC(=O)NC1=O | inactive: -8.43% | –
67 | CCOc1cc(C2NCc3ccccc3-n3cccc32)ccc1OC (centres undefined) | inactive: -26.5% | –
68 | CN1C(=O)CCC2(C)C1=CCC1C2CCC2(C)C1CCC2(C)O (centres undefined) | inactive: -21.4% | –
69 | CCc1nc2ccc(C(=O)N3CCN(C(=O)c4ccco4)CC3)cn2c1N(C)Cc1ccc(OC)cc1 | – | inconclusive: 29.1 µM [inhibitor, single point]
70 | CCOC(=O)C1(c2ccccc2)CCN(CC(=O)Nc2ccc(C)cc2)CC1 | – | inconclusive: 20.6 µM [inhibitor, single point]
71 | CC(C)C[C@H]1COc2cc(N3CCN(C)CC3)ccc2S(=O)(=O)N1 | – | inconclusive: 29.1 µM [inhibitor, single point]
72 | Nc1ccc(Cl)cc1N | inactive: -29.5% [at 92.5 µM] | –
73 | CCC(=NCc1cccnc1)c1c(O)n(C2CCCCC2)c(=O)[nH]c1=O | – | inconclusive: 14.6 µM [inhibitor, partial curve]
